Assay results reported in the BET-seq Pho4 binding data (Le et al. 2018).
The other results are listed elsewhere or left out. The energies were worked out here from pooled read counts, against the library average; single values are noisy.

molecular target: T1, Pho4 (S. cerevisiae) (UniProt P07270); experiment: relative binding free energy (BET-seq); higher = weaker binding; details: reference: library average
T1 sequence: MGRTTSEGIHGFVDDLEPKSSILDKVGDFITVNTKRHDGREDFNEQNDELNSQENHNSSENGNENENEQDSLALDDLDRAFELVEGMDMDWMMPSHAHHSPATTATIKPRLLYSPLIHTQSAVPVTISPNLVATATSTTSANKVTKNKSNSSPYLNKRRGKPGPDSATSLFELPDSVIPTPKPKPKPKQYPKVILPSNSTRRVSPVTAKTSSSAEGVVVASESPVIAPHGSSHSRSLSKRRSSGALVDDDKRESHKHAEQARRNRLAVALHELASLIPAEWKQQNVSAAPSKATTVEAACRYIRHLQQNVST

| Sequence | relative binding free energy [kcal/mol] |
| --- | --- |
| ATAAACACGTGTGCGG | -0.01 |
| TTTAACACGTGATTAT | 0.18 |
| AGAGGCACGTGTGATA | 0 |
| GTATGCACGTGCAGGG | 0.06 |
| TGGTGCACGTGGGTAC | -0.11 |
| TGCTACACGTGTGATT | 0.26 |
| GGATACACGTGTAGTT | 0.17 |
| TTTAACACGTGTGAGG | 0.01 |
| CTGTGCACGTGGGGCT | -0.12 |
| TGCTTCACGTGCGGGT | 0.32 |
| AGTTTCACGTGAGTGC | 0.43 |
| GTAGTCACGTGGACAT | 0.18 |
| GGCTTCACGTGTAGTT | 0.38 |
| GGATTCACGTGTATGC | 0.29 |
| AGGGACACGTGGGGGT | -0.07 |
| TGTGACACGTGGAGTT | 0 |
| CGAGGCACGTGTCGGA | -0.02 |
| TAATACACGTGTGTAG | 0.13 |
| TGATCCACGTGGGTTT | -0.05 |
| TTCTCCACGTGGTGTA | -0.05 |
| TATTCCACGTGGGTAT | -0.13 |
| ACGTGCACGTGTGTAT | -0.15 |
| GAGTTCACGTGGGAGG | 0.39 |

| Sequence | relative binding free energy [kcal/mol] |
| --- | --- |
| GTAATCACGTGAGGCG | 0.3 |
| GTGGTCACGTGGACGG | 0.13 |
| TAGCGCACGTGGGAGT | -0.2 |
| AATTGCACGTGTCGGT | 0.06 |
| TGATGCACGTGCTGAT | -0.05 |
| GAAGGCACGTGTGGCG | 0 |
| GGGAGCACGTGCATTG | -0.01 |
| CAAGGCACGTGTGGGA | -0.11 |
| AAAGGCACGTGTTAGT | 0.02 |
| AGGTGCACGTGGGATG | -0.14 |
| CTTAACACGTGGTCGT | -0.01 |
| TAGGGCACGTGGGTAT | -0.24 |
| GAAGTCACGTGTGTGT | 0.28 |
| TTGGTCACGTGAGTTG | 0.26 |
| AGAAGCACGTGGTTAG | 0 |
| ACTGGCACGTGTGAAT | 0.03 |
| GTGTACACGTGGGAGA | 0.02 |
| CGGGGCACGTGGGTAC | -0.37 |
| TCGTCCACGTGTGGGA | 0.12 |
| GAGTACACGTGGATGT | 0.13 |
| GGGGTCACGTGTATAG | 0.06 |
| GTGTCCACGTGGATGA | 0.19 |
| GTGATCACGTGAGTAG | 0.29 |

| Sequence | relative binding free energy [kcal/mol] |
| --- | --- |
| GCGGTCACGTGACTGT | 0.33 |
| CGTGACACGTGCAGGT | -0.07 |
| TTGTGCACGTGAGTTT | 0.28 |
| ATGTGCACGTGAAGGC | 0.09 |
| TATATCACGTGTGAGT | 0.18 |
| CGATACACGTGGGGGG | -0.26 |
| ACTATCACGTGAGGTT | 0.39 |
| GGGGACACGTGGCTGA | -0.1 |
| CTAGACACGTGGTTTG | -0.09 |
| GGAAGCACGTGATGAT | 0.11 |
| GTGCGCACGTGGAGCG | -0.03 |
| ATAGGCACGTGAGGAG | 0.05 |
| ATGCGCACGTGATTGG | 0.07 |
| TTAGTCACGTGATGGG | 0.26 |
| CTAGGCACGTGTTTTA | 0.05 |
| TTTTACACGTGGGTCA | 0.06 |
| AGAATCACGTGGGCGG | -0.13 |
| GTAAACACGTGGCTGG | 0.02 |
| TGTGTCACGTGAGCTC | 0.24 |
| ATCGTCACGTGATGGT | 0.12 |
| CCGGACACGTGAGGGT | 0.18 |
| TCGTGCACGTGTGTGC | -0.08 |
| TTTAGCACGTGTGCGT | -0.08 |

| Sequence | relative binding free energy [kcal/mol] |
| --- | --- |
| TCTGTCACGTGGCTTT | 0.05 |
| TCGGGCACGTGACTGG | 0.05 |
| TTTTTCACGTGCGGTC | 0.32 |
| GGTCTCACGTGTAGGA | 0.2 |
| GGAAGCACGTGGATGC | 0.06 |
| AGTGGCACGTGATGTA | -0.01 |
| GTTTACACGTGTCTGA | 0.14 |
| GTACGCACGTGATAGG | 0.14 |
| AAGTTCACGTGTGTGA | 0.14 |
| TTGTACACGTGTATTC | 0.07 |
| ATAGTCACGTGGGAGT | 0 |
| AGTCGCACGTGTGAGG | 0.02 |
| TAGTCCACGTGTTTTA | 0.13 |
| AATCGCACGTGTGGGG | -0.08 |
| TGGTGCACGTGCTTGC | -0.1 |
| AGGCACACGTGGGGCT | -0.03 |
| GAACGCACGTGGGTTG | -0.17 |
| GGGTGCACGTGTCGTC | 0.03 |
| ATGGTCACGTGTATAG | 0.08 |
| GGATGCACGTGGGTGT | -0.16 |
| GGATTCACGTGGGTGG | 0.19 |
| AGGGCCACGTGACTGG | 0.08 |
| GGCTGCACGTGTATGG | 0.18 |

| Sequence | relative binding free energy [kcal/mol] |
| --- | --- |
| TTCTCCACGTGTGTTT | 0.18 |
| GAGGTCACGTGTGTAA | 0.27 |
| CTAGGCACGTGTTTAG | -0.23 |
| CGTAACACGTGAGTTG | 0.33 |
| TGTAGCACGTGGGTAG | -0.13 |
| GGGTTCACGTGTTTGA | 0.32 |
| TTGTACACGTGAAGGT | 0.22 |
| TGGTTCACGTGTGTAT | 0.37 |
| ATTGTCACGTGGGCGG | -0.07 |
| TATGTCACGTGGACTT | -0.01 |
| ATGGGCACGTGAATGT | 0.06 |
| GTTTGCACGTGCGAGG | 0.01 |
| TTAGGCACGTGGTGTG | -0.26 |
| ATGTGCACGTGGGGGT | -0.19 |
| GTAGACACGTGGATTT | 0.27 |
| AGATTCACGTGGGTTT | 0.23 |
| ATCTTCACGTGTAGGG | 0.12 |
| CTAGCCACGTGGGGTT | -0.2 |
| AAAATCACGTGGGGGT | 0.14 |
| TAGGGCACGTGGGTGA | -0.24 |
| GGGCTCACGTGATTGT | 0.29 |
| GGGTCCACGTGCCGGG | -0.14 |
| ACATTCACGTGTCGGT | 0.3 |
